# Some of the results follow. Sequences were assembled here from the parent chain. Inactive controls read about 0.05.
# B1: TEV protease; numbered along this chain (parent)
# chain: MGESLFKGPRDYNPISSSICHLTNESDGHTTSLYGIGFGPFIITNKHLFRRNNGTLVVQSLHGVFKVKDTTTLQQHLVDGRDMIIIRMPKDFPPFPQKLKFREPQREERICLVTTNFQTKSMSSMVSDTSCTFPSGDGIFWKHWIQTKDGQCGSPLVSTRDGFIVGIHSASNFTNTNNYFTSVPKNFMELLTNQEAQQWVSGWRLNADSVLWGGHKVFMVKPEEPFQPVKEATQL
# Variants of: B1
# Experiment: raw area under fraction-flipped curve 0-4 h after induction (AUC4h, not background-subtracted), DNA-recorder readout of cleavage of the substrate (dimensionless); higher = more cleavage of the substrate by the protease variant
# Settings: temperature: 34 °C; time window: 0-4 h after rhamnose induction
# Description: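 In vivo DNA recorder in E. coli TOP10(DE3) ΔrhaA at 34 °C. Each TEVp single-site mutant (parent TEVp 0) is paired with a single-site variant of the 7-mer TEVs (canonical ENLYFQ|S). The substrate sits between flexible linkers in a Bxb1-sfGFP-TEVs-SsrA fusion, so cleavage stabilises Bxb1 and speeds flipping of a recombination array, read by NGS. The value is the raw area under the fraction-flipped curve over 0-4 h after rhamnose induction (AUC4h), with ≥20 reads per time point. It is not background-subtracted; inactive controls average about 0.047.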
# 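Note: Bxb1 expression induced with 0.2% (w/v) L-rhamnose at OD600 near 0.5, cultures sampled hourly, flipped fraction per protease–substrate barcode pair counted by paired-end Illumina sequencing.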
variant,measurement,value
MGESLFKGPRDYNPISSSICHLTNEQDGHTTSLYGIGFGPFIITNKHLFRRNNGTLVVQSLHGVFKVKDTTTLQQHLVDGRDMIIIRMPKDFPPFPQKLKFREPQREERICLVTTNFQTKSMSSMVSDTSCTFPSGDGIFWKHWIQTKDGQCGSPLVSTRDGFIVGIHSASNFTNTNNYFTSVPKNFMELLTNQEAQQWVSGWRLNADSVLWGGHKVFMVKPEEPFQPVKEATQL [S26Q],area with substrate ENLYFCS,0.0435
same,area with substrate ENLYFDS,0.0667
same,area with substrate ENLYFES,0.069
same,area with substrate ENLYFFS,0.0605
same,area with substrate ENLYFGS,0.0669
same,area with substrate ENLYFIS,0.0526
same,area with substrate ENLYFKS,0.0489
same,area with substrate ENLYFMS,0.0646
same,area with substrate ENLYFNS,0.058
same,area with substrate ENLYFPS,0.0559
same,area with substrate ENLYFSS,0.0589
same,area with substrate ENLYFTS,0.0558
same,area with substrate ENLYFVS,0.0878
same,area with substrate ENLYFWS,0.0438
same,area with substrate ENLYFYS,0.0665
MGESLFKGPRDYNPISSSICHLTNESDGPTTSLYGIGFGPFIITNKHLFRRNNGTLVVQSLHGVFKVKDTTTLQQHLVDGRDMIIIRMPKDFPPFPQKLKFREPQREERICLVTTNFQTKSMSSMVSDTSCTFPSGDGIFWKHWIQTKDGQCGSPLVSTRDGFIVGIHSASNFTNTNNYFTSVPKNFMELLTNQEAQQWVSGWRLNADSVLWGGHKVFMVKPEEPFQPVKEATQL [H29P],area with substrate ENLYFCS,0.0671
same,area with substrate ENLYFDS,0.0481
same,area with substrate ENLYFES,0.0621
same,area with substrate ENLYFFS,0.0545
same,area with substrate ENLYFGS,0.0566
same,area with substrate ENLYFHS,0.0534
same,area with substrate ENLYFIS,0.0445
same,area with substrate ENLYFLS,0.0378
same,area with substrate ENLYFMS,0.0642
same,area with substrate ENLYFNS,0.064
same,area with substrate ENLYFPS,0.0511
same,area with substrate ENLYFRS,0.0732
same,area with substrate ENLYFTS,0.0556
same,area with substrate ENLYFWS,0.0666
MGESLFKGPRDYNPISSSICHLTNESDGTTTSLYGIGFGPFIITNKHLFRRNNGTLVVQSLHGVFKVKDTTTLQQHLVDGRDMIIIRMPKDFPPFPQKLKFREPQREERICLVTTNFQTKSMSSMVSDTSCTFPSGDGIFWKHWIQTKDGQCGSPLVSTRDGFIVGIHSASNFTNTNNYFTSVPKNFMELLTNQEAQQWVSGWRLNADSVLWGGHKVFMVKPEEPFQPVKEATQL [H29T],area with substrate ENLYFCS,0.0645
same,area with substrate ENLYFFS,0.0705
same,area with substrate ENLYFIS,0.0576
same,area with substrate ENLYFKS,0.0682
same,area with substrate ENLYFLS,0.0517
same,area with substrate ENLYFMS,0.0754
same,area with substrate ENLYFNS,0.0542
same,area with substrate ENLYFPS,0.0585
same,area with substrate ENLYFRS,0.0597
same,area with substrate ENLYFTS,0.0611
same,area with substrate ENLYFVS,0.063
same,area with substrate ENLYFYS,0.0527
MGESLFKGPRDYNPISSSICHLTNESDGHRTSLYGIGFGPFIITNKHLFRRNNGTLVVQSLHGVFKVKDTTTLQQHLVDGRDMIIIRMPKDFPPFPQKLKFREPQREERICLVTTNFQTKSMSSMVSDTSCTFPSGDGIFWKHWIQTKDGQCGSPLVSTRDGFIVGIHSASNFTNTNNYFTSVPKNFMELLTNQEAQQWVSGWRLNADSVLWGGHKVFMVKPEEPFQPVKEATQL [T30R],area with substrate ENLYFCS,0.0506
same,area with substrate ENLYFES,0.0661
same,area with substrate ENLYFFS,0.0667
same,area with substrate ENLYFGS,0.0597
same,area with substrate ENLYFIS,0.0551
same,area with substrate ENLYFLS,0.0623
same,area with substrate ENLYFMS,0.0626
same,area with substrate ENLYFNS,0.0577
same,area with substrate ENLYFPS,0.0647
same,area with substrate ENLYFSS,0.0542
same,area with substrate ENLYFTS,0.0538
same,area with substrate ENLYFWS,0.0464
MGESLFKGPRDYNPISSSICHLTNESDGHTTSHYGIGFGPFIITNKHLFRRNNGTLVVQSLHGVFKVKDTTTLQQHLVDGRDMIIIRMPKDFPPFPQKLKFREPQREERICLVTTNFQTKSMSSMVSDTSCTFPSGDGIFWKHWIQTKDGQCGSPLVSTRDGFIVGIHSASNFTNTNNYFTSVPKNFMELLTNQEAQQWVSGWRLNADSVLWGGHKVFMVKPEEPFQPVKEATQL [L33H],area with substrate ENLYFCS,0.058
same,area with substrate ENLYFDS,0.0608
same,area with substrate ENLYFES,0.0507
same,area with substrate ENLYFFS,0.0718
same,area with substrate ENLYFGS,0.0478
same,area with substrate ENLYFHS,0.0408
same,area with substrate ENLYFIS,0.0597
same,area with substrate ENLYFKS,0.076
same,area with substrate ENLYFMS,0.0497
same,area with substrate ENLYFPS,0.0604
same,area with substrate ENLYFRS,0.044
same,area with substrate ENLYFTS,0.0493
same,area with substrate ENLYFWS,0.0527
same,area with substrate ENLYFYS,0.0553
MGESLFKGPRDYNPISSSICHLTNESDGHTTSLYGIGFGPFIINNKHLFRRNNGTLVVQSLHGVFKVKDTTTLQQHLVDGRDMIIIRMPKDFPPFPQKLKFREPQREERICLVTTNFQTKSMSSMVSDTSCTFPSGDGIFWKHWIQTKDGQCGSPLVSTRDGFIVGIHSASNFTNTNNYFTSVPKNFMELLTNQEAQQWVSGWRLNADSVLWGGHKVFMVKPEEPFQPVKEATQL [T44N],area with substrate ENLYFCS,0.0305
same,area with substrate ENLYFDS,0.0323
same,area with substrate ENLYFES,0.0341
same,area with substrate ENLYFFS,0.0622
same,area with substrate ENLYFGS,0.0421
same,area with substrate ENLYFHS,0.0433
same,area with substrate ENLYFIS,0.0369
same,area with substrate ENLYFKS,0.0381
same,area with substrate ENLYFLS,0.0555
same,area with substrate ENLYFMS,0.0454
same,area with substrate ENLYFNS,0.0211
same,area with substrate ENLYFPS,0.0504
same,area with substrate ENLYFRS,0.0286
same,area with substrate ENLYFSS,0.0481
same,area with substrate ENLYFTS,0.0477
same,area with substrate ENLYFVS,0.0425
same,area with substrate ENLYFWS,0.0195
same,area with substrate ENLYFYS,0.0347
MGESLFKGPRDYNPISSSICHLTNESDGHTTSLYGIGFGPFIITNKHLDRRNNGTLVVQSLHGVFKVKDTTTLQQHLVDGRDMIIIRMPKDFPPFPQKLKFREPQREERICLVTTNFQTKSMSSMVSDTSCTFPSGDGIFWKHWIQTKDGQCGSPLVSTRDGFIVGIHSASNFTNTNNYFTSVPKNFMELLTNQEAQQWVSGWRLNADSVLWGGHKVFMVKPEEPFQPVKEATQL [F49D],area with substrate ENLYFCS,0.0339
same,area with substrate ENLYFES,0.0636
same,area with substrate ENLYFFS,0.0648
same,area with substrate ENLYFHS,0.0714
same,area with substrate ENLYFIS,0.0658
same,area with substrate ENLYFKS,0.0587
same,area with substrate ENLYFMS,0.0539
same,area with substrate ENLYFNS,0.0538
same,area with substrate ENLYFRS,0.0731
same,area with substrate ENLYFSS,0.0388
same,area with substrate ENLYFTS,0.0414
same,area with substrate ENLYFVS,0.0564
same,area with substrate ENLYFWS,0.057
MGESLFKGPRDYNPISSSICHLTNESDGHTTSLYGIGFGPFIITNKHLFRRNDGTLVVQSLHGVFKVKDTTTLQQHLVDGRDMIIIRMPKDFPPFPQKLKFREPQREERICLVTTNFQTKSMSSMVSDTSCTFPSGDGIFWKHWIQTKDGQCGSPLVSTRDGFIVGIHSASNFTNTNNYFTSVPKNFMELLTNQEAQQWVSGWRLNADSVLWGGHKVFMVKPEEPFQPVKEATQL [N53D],area with substrate ENLYFCS,0.0554
same,area with substrate ENLYFDS,0.056
same,area with substrate ENLYFES,0.0704
same,area with substrate ENLYFFS,0.0784
same,area with substrate ENLYFGS,0.0561
same,area with substrate ENLYFIS,0.0568
same,area with substrate ENLYFKS,0.0684
same,area with substrate ENLYFMS,0.0747
same,area with substrate ENLYFNS,0.0654
same,area with substrate ENLYFPS,0.0381
same,area with substrate ENLYFRS,0.0563
same,area with substrate ENLYFSS,0.0686
same,area with substrate ENLYFTS,0.0534
same,area with substrate ENLYFWS,0.0589
same,area with substrate ENLYFYS,0.0392
MGESLFKGPRDYNPISSSICHLTNESDGHTTSLYGIGFGPFIITNKHLFRRNNKTLVVQSLHGVFKVKDTTTLQQHLVDGRDMIIIRMPKDFPPFPQKLKFREPQREERICLVTTNFQTKSMSSMVSDTSCTFPSGDGIFWKHWIQTKDGQCGSPLVSTRDGFIVGIHSASNFTNTNNYFTSVPKNFMELLTNQEAQQWVSGWRLNADSVLWGGHKVFMVKPEEPFQPVKEATQL [G54K],area with substrate ENLYFCS,0.0632
same,area with substrate ENLYFDS,0.0559
same,area with substrate ENLYFES,0.0625
same,area with substrate ENLYFFS,0.067
same,area with substrate ENLYFKS,0.0708
same,area with substrate ENLYFMS,0.0477
same,area with substrate ENLYFPS,0.0675
same,area with substrate ENLYFRS,0.049
same,area with substrate ENLYFSS,0.0525
same,area with substrate ENLYFTS,0.0596
same,area with substrate ENLYFWS,0.047
same,area with substrate ENLYFYS,0.0526
